Assay results from article PMC4336329 (PLoS ONE, 2015).
The whole screen tested about 310,000 compounds, of which about 14,000 (4.5%) showed an effect of 50% or more. Effects have a minus sign here. The list shows a part of the results.

target: human ether-à-go-go-related gene (hERG) potassium channel (human, UniProt Q12809); test: primary screen, population patch clamp on CHO cells stably expressing hERG
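Also: peak tail current of the secondary pulse compared with the same well before compound.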

Chain of human ether-à-go-go-related gene (hERG) potassium channel (Q12809 whole entry, looked up): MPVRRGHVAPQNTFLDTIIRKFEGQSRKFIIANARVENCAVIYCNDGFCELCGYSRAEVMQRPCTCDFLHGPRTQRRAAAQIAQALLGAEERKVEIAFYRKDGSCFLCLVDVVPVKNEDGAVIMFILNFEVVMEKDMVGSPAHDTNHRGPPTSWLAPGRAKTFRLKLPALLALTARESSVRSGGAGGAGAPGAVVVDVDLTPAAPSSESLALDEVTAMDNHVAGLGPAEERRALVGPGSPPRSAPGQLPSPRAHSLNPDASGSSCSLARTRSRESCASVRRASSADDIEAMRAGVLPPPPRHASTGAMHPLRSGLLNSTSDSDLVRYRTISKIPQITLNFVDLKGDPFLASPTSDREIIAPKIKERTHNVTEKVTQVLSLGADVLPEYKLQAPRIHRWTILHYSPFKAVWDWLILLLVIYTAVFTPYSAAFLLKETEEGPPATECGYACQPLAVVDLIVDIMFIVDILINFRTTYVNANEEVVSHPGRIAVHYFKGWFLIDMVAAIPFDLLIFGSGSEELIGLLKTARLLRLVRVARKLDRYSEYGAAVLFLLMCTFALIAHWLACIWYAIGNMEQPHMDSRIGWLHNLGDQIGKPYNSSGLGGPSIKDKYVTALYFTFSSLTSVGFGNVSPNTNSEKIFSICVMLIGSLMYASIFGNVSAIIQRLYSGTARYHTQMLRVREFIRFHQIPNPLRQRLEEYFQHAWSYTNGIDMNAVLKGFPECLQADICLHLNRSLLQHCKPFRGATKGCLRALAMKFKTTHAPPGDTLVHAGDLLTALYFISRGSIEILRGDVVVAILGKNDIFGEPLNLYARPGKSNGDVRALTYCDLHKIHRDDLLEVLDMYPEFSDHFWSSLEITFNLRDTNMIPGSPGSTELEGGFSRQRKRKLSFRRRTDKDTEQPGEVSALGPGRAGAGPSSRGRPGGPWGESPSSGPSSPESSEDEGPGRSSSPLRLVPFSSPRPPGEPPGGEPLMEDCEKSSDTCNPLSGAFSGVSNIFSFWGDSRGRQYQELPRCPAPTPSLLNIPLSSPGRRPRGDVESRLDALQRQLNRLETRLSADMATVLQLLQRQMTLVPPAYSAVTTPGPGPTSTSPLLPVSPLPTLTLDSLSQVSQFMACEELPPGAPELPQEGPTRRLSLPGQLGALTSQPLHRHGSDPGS

SMILES	hERG current change (%, negative = inhibition) at 10uM
CC1Sc2ccc(S(=O)(=O)CCC(=O)NCc3ccccc3Cl)cc2NC1=O (centres unmarked)	0.444%
CSc1nn(-c2ccc(C(=O)OC(C(=O)NC(N)=O)C(C)C)cc2)c(=S)s1 (centres unmarked)	25.6%
Cc1ccccc1C(=O)Nc1ccccc1C(=O)NC1CC1	6.72%
O=C(CSc1nnc(COc2cccc3cccnc23)o1)N1CCN(C(=O)c2ccco2)CC1	0.452%
CCN(C(=O)CN(C)Cc1c(F)cccc1Cl)c1c(N)n(Cc2ccccc2)c(=O)[nH]c1=O	10.1%
O=C(COC(=O)CCCN1C(=O)c2cccc3cccc(c23)C1=O)Nc1cccc(Br)c1	6.6%
COc1ccc(OC)c(CCNC(=O)c2ccccc2NC(=O)C2=C(C)OCCS2)c1	-6.28%
CCOP(=O)(OCC)C(Nc1ccccc1)c1cc(OC)ccc1OC (centres unmarked)	-20.5%
COc1ccc(NC2CCCN(C(=O)CCN3CCCO3)C2)cc1 (centres unmarked)	3.62%
C/C(=N\NC(=S)NC(C)C)c1ccc(Cl)s1	1.02%
CC(OC(=O)CNC(=O)c1sc2ccccc2c1Cl)c1ccccc1 (centres unmarked)	8.16%
Cn1c(NCc2ccccc2)nc2c1c(=O)n(Cc1ccccc1)c(=O)n2C	-4.32%
COc1ccccc1N1CCN(Cc2nc(-c3ccc(F)cc3)oc2C)CC1	-65.9%
CCOCc1cnc(C)nc1NCC(=O)c1c(C)[nH]c2ccc(OC)cc12.I	2.7%
CCOC(=O)c1c(NC(=O)c2cnn3c2NC(c2cccc(OC)c2)CC3C(F)(F)F)sc2c1CCCC2 (centres unmarked)	0.45%
CCOC(=O)N1CCN(Cc2nc3ccc([N+](=O)[O-])cc3c(=O)n2-c2ccccc2F)CC1	-69.9%
CCOc1ccc(Nc2nc(N)c([N+](=O)[O-])c(N3CCOCC3)n2)cc1	7.74%
Cc1ccc(NC(=O)CN2CCC(NC(=O)c3ccccc3F)CC2)cc1C.Cl	-18%
CC(=O)NCCNC(=O)C1CCC(CNc2nc(=S)[nH]c3ccccc23)CC1 (centres unmarked)	6.59%
Cn1c(SCC(=O)NC2CC2)nnc1-c1ccccn1	10.2%
COc1ccc(/C=C2\SC(=O)N(CC(=O)NCCCn3ccnc3)C2=O)cc1	-44.5%
O=C(NC1CCCCC1)C(c1ccc2ncccc2c1)N(Cc1ccc(F)cc1)C(=O)c1cccs1 (centres unmarked)	-22%
O=C(COC(=O)c1ccc2ccccc2n1)Nc1cccc(S(=O)(=O)NC2=NCCCCC2)c1	-4.1%
CCOc1ccc(N(CC(=O)N/N=C/c2cc(Br)c(C)o2)S(C)(=O)=O)cc1	4.71%
Cc1cccc(Nc2cc(=O)n(C)c(=O)[nH]2)c1	17.9%
CCC(=O)N1CCc2cc(S(=O)(=O)CCC(=O)NC3CCCCC3)ccc21	5.33%
O=C(CS(=O)(=O)Cc1ccccc1)Nc1ccccn1	-3.96%

SMILES	hERG current change (%, negative = inhibition) at 10uM
O=[N+]([O-])c1ccc(N2CCN(c3ccc([N+](=O)[O-])cc3CO)CC2)c(CO)c1	-64.7%
O=c1oc2ccccc2c(N2CCCCC2)c1CN1CCCC1	-54.4%
O=C(c1cc(Cl)nc2ccccc12)N1CCN(S(=O)(=O)c2cccc(F)c2)CC1	-5.28%
COc1ccc(C(=O)N2CCN(c3ccccc3)CC2)cc1S(=O)(=O)N1CCOCC1	-16.7%
CCN1CCN(CC(=O)Nc2cc(F)ccc2C)CC1	-46.2%
O=C(/C=C/c1c(Cl)cccc1Cl)NCCCn1ccnc1	-22.2%
CC(c1ccco1)N(C(=O)COc1ccc(Cl)cc1)c1ccccn1 (centres unmarked)	-12.7%
C/C(=N\O)C(=O)NCCN(C)C	29.3%
O=C(NCc1csc2ccc(Cl)cc12)Nc1ccccc1	13%
CCOC(=O)c1[nH]c(C)c(C(=O)NCc2ccc(OC)cc2)c1C	2.13%
Cc1cc(C(=O)NC(C)Cc2ccccc2)cc(C)c1[N+](=O)[O-] (centres unmarked)	2.43%
O=c1oc(CCCO)cc2ccc(C#CC3(O)CCCCC3)cc12	-6.73%
COc1ccc(CNC(=O)Cn2nc([N+](=O)[O-])cc2C)cc1	0.309%
Cc1ccccc1OCC(O)Cn1c(SC(C)C)nc2c1c(=O)[nH]c(=O)n2C (centres unmarked)	-24.8%
CCC(=O)N1c2ccc(S(=O)(=O)CCC(=O)N3CCC4(CC3)OCCO4)cc2CC1C (centres unmarked)	10.3%
Cc1ccc(S(=O)(=O)N2CCC(C(=O)OC(C)C(=O)NCc3ccccc3)CC2)cc1C (centres unmarked)	-16.9%
N#Cc1ccc(/C=C/C(=O)c2ccccc2)cc1	-11.1%
COc1ccc(NS(=O)(=O)c2cc(NC(=O)[C@@H](NC(=O)c3ccccc3)C(C)C)ccc2C)cc1	-10.8%
O=C(c1c(F)cccc1Cl)N1CCN(S(=O)(=O)c2ccc3c(c2)OCCCO3)CC1	-0.77%
CCOC(=O)c1sc2nc(SCC#N)n(CC3CCCO3)c(=O)c2c1C (centres unmarked)	-13.5%
COc1cc(C)c(C)cc1S(=O)(=O)n1c(C)nc2ccccc21	-4.75%
CCOC(=O)c1ccc(NC(=S)NCCc2ccccc2F)cc1	-8.72%
COCCCNC(=S)N1CCN(c2ccccc2)CC1	12.9%
CCOc1ccc(NC(=O)c2ccc(NC(=O)c3cn4c5c(c(N6CCN(C)CC6)c(F)cc5c3=O)OCC4C)cc2)cc1 (centres unmarked)	-4.75%
O=C(Nc1ccc(-c2nc3ccccc3s2)c(OC(=O)c2ccccc2)c1)c1ccccc1	9.01%
Cc1cc(C)cc(N(CC(=O)NC2CCCC2)C(=O)CCC(=O)Nc2cc(C)on2)c1	3.71%
